# The supplement of paper PMC12645437, “Orthogonal IMiD-Degron Pairs Induce Selective Protein Degradation in Cells” (ACS Chemical Biology, 2025)
# Some of the results follow.
# Target: no compound (DMSO)
# Test: log2 fold change of degron read counts, EGFP-low vs EGFP+ sorted cells; higher = lower degron-EGFP level without compound (poor expression or instability)
# Conditions: compound: DMSO control; 18 h
# 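Note: jurkat cells carrying a lentiviral library of mutant zinc finger degrons fused to EGFP plus mCherry, mCherry+ cells FACS sorted, degron abundance counted by next-generation sequencing.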
row,Sequence,log2 fold change of degron read counts
1,FECEICGRHFTQKGNLLRHIKL,-1.52
2,FSCPICGRFFTQKGNLLRHIKL,-0.733
3,LSCEICGFQCTQKGNLLRHIKL,-1.25
4,FCCNQCGRQFTQKGNLLRHIKL,-0.454
5,LMCEICGFNCTQKGNLLRHIKL,0.107
6,FLCNVCGATFTQKGNLLRHIKL,-1.37
7,FACSVCGHGFTQKGNLLRHIKL,0.149
8,FCCEQCGAEFTQKGNLLRHIKL,-2.32
9,FICPICGHIFTQKGNLLRHIKL,0.783
10,LNCNQCGFPCTQKGNLLRHIKL,0.355
11,FSCNQCGRCFTQKGNLLRHIKL,-0.871
12,FYCNQCGRKFTQKGNLLRHIKL,-0.681
13,FWCDVCGAQFTQKGNLLRHIKL,-1.18
14,FVCPVCGAEFTQKGNLLRHIKL,-0.746
